# Reference: the supplement of paper PMC3334620
# Over roughly 33,000 sequences, “E-score (-0.5 to 0.5)” has its median near -0.012; the highest 2% begin near 0.27. This is one part of the list.
# Biological target: T1, Vhr1 (UniProt P40522)
# T1 sequence: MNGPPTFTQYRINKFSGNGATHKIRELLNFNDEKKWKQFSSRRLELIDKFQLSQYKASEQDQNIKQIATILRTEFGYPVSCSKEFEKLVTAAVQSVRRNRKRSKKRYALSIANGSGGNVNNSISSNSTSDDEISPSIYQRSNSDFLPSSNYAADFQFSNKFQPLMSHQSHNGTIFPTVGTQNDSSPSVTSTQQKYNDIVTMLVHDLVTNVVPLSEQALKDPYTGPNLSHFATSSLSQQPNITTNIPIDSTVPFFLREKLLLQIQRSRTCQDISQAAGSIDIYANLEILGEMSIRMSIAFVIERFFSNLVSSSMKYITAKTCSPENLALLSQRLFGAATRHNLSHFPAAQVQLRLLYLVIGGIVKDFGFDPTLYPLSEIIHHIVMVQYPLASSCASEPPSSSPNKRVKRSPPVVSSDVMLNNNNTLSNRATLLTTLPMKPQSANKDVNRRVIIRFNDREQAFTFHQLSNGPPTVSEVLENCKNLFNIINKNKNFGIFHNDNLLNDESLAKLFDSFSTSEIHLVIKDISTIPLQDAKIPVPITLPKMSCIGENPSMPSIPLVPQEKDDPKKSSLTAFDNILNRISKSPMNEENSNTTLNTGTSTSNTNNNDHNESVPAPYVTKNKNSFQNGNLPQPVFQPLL
# Experiment: PBM E-score (8-mer binding enrichment) (E-score (-0.5 to 0.5)); higher = stronger / more preferred TF binding; most listed sequences are background and not binding sites
# Settings: protein concentration: 200 nM; construct: GST-full length
# In short: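 PURExpress in vitro transcription/translation supplied GST-tagged yeast transcription factors, either full-length or DNA-binding domain. Applied at about 100-200 nM to universal all-10-mer Agilent arrays double-stranded by primer extension, the bound protein was detected with fluorescent anti-GST. E-scores, modified Wilcoxon-Mann-Whitney statistics, were given by the Universal PBM Analysis Suite to ungapped eight-base words pooled with their reverse complements after masliner normalisation.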
row,Sequence,PBM E-score
1,AGCGCGTA,0.0158
2,TGCATACA,0.13
3,CGGTACTA,-0.0942
4,GTAGTCTA,0.129
5,CTACTAAG,-0.074
6,ATCCCGAA,0.112
7,TAAATTGA,0.0232
8,AATGTTCT,-0.191
9,AGAGCATG,0.0582
10,AATCGTTG,0.105
11,AGAGGGAA,-0.305
12,CCGCAACC,0.0158
13,AAGTCATG,0.41
14,CACTGAGA,0.00705
15,AAATGAGA,-0.186
16,ACACATTC,0.205
17,CGGCAGAG,-0.137
18,GGATGATA,0.0626
19,AACTCTAA,-0.211
20,CTGGCCAG,-0.11
21,CTCTAAAC,-0.268
22,GCGAGCAA,-0.12
23,CATTAGCC,-0.187
24,AGCCGACC,-0.147
25,CCACTGAA,0.0261

row,Sequence,PBM E-score
1,CGTTGAAA,-0.226
2,ACGAGATG,0.0566
3,ATGCGATG,0.0889
4,GCGTAAAA,-0.0856
5,GCTCTCTA,-0.215
6,TCACCAAA,0.112
7,CTTTTAGC,-0.217
8,AGATCCGA,-0.134
9,CGAGAGCA,-0.031
10,ATTTCCGC,0.0535
11,AATTTCCC,-0.306
12,AGACCGGA,0.129
13,ATCCCCTA,-0.161
14,AACCGGTC,-0.109
15,CTTGAAAA,-0.248
16,CAGGCTAA,-0.0406
17,CGAAAACA,-0.0475
18,GTTACCTA,0.0717
19,CGCAAATC,-0.0562
20,AAGCCTGT,0.0771
21,CGACTGTC,0.102
22,CGCCGCAC,-0.128
23,CTGCCACA,-0.0514
24,ACGCTCAA,-0.0768
25,CGCGCCCG,0.0727

row,Sequence,PBM E-score
1,AGCACAAG,-0.0682
2,CGCCATCA,-0.056
3,GGGGTGTA,-0.111
4,CGGGTTAA,0.0195
5,AGCACCTA,-0.157
6,CATGACGG,0.0327
7,ATAGGTGC,-0.118
8,TCGTAGAA,-0.215
9,AGGCATAG,0.0756
10,CATTACAG,0.132
11,CCCCGGCA,-0.129
12,CGAGATAA,-0.0472
13,ATGGAATG,0.0837
14,ACTGTATC,0.0393
15,AACGCACC,0.0152
16,AAAAGGGG,-0.155
17,GGAAATAA,0.0737
18,ATCTTCGC,0.0868
19,ATACAGTC,0.0645
20,TATCCAGA,0.0587
21,CCGGGCCG,0.235
22,ACACATGA,0.213
23,ATAGCGTG,-0.0299
24,ATTGATTC,0.171
25,AAATGGTG,0.201

row,Sequence,PBM E-score
1,TCAACTGA,0.145
2,AGGATAGC,-0.0939
3,ACCGTCTG,-0.168
4,AACAGAAC,0.0623
5,CACCTTAC,-0.177
6,AGGCTCTG,-0.0502
7,TAGAAGGA,-0.332
8,AAGCAGCC,-0.153
9,GGAAACGA,0.0811
10,AACCGGTT,-0.257
11,AATGCCAT,0.0632
12,TCCGCCGA,0.0906
13,AGAATTAA,-0.301
14,AACCGGGT,0.173
15,ACACAGAA,0.117
16,CAGGTCAG,0.0778
17,GCAGGTCA,-0.0243
18,CGTTGAGA,-0.0485
19,ACAACTTG,0.00228
20,AGGCTTTC,-0.0516
21,CCTAATGA,0.148
22,ACTATTGG,-0.0598
23,CTATGTCA,0.0953
24,ACCCTTGC,-0.0167
25,ACACCACA,0.193

row,Sequence,PBM E-score
1,ACGGCAAC,-0.0167
2,GATTATGC,0.136
3,GATATAAA,-0.0981
4,AAGAACCT,-0.148
5,CCCGAGCG,-0.0759
6,ACGCTCTC,-0.156
7,TCATATGA,0.381
8,GTAATTAA,-0.0531
9,GGTATCTA,-0.00876
10,CTAACGTA,-0.0559
11,AGAGTGAC,-0.0526
12,CACGGACG,-0.017
13,CGCTTGCC,-0.273
14,TTAGAGAA,-0.356
15,AGTAAACC,-0.0886
16,CGACGTCA,-0.142
17,CAATTAAA,-0.0545
18,AATTTCCT,-0.0919
19,AGACTATA,0.235
20,CAGGATCC,0.127
21,AATAGTCC,-0.177
22,GAACCCCC,-0.298
23,GGGAGGAC,-0.0865
24,CGGACACA,-0.00066
25,ACCGAAGT,0.0829

row,Sequence,PBM E-score
1,CCCTCAGA,-0.123
2,ATGCCTCC,-0.185
3,AGTGAGCC,0.221
4,GATCAAAC,-0.00532
5,AGTTGACG,0.047
6,GAAGCCTA,-0.177
7,TCAGCCCA,0.113
8,CATCACTC,0.23
9,GCTTGGCC,-0.0463
10,CTAGAATC,0.0123
11,CTGTCACC,-0.195
12,CTTTAAAG,-0.224
13,CATGTCAG,0.0503
14,CCCGTACG,-0.0997
15,ACGACTGG,0.0415
16,CCTGCCTC,-0.188
17,CCTTCAAC,-0.0942
18,CGGGGCAA,0.00278
19,ACACGAAC,0.176
20,CGTTTCAC,-0.184
21,CACTAACA,0.177
22,ATCGTCAT,0.134
23,ACTCGTTA,0.00695
24,AGACAACA,-0.116
25,TCTCTCAA,0.115

row,Sequence,PBM E-score
1,GGAGCGTA,0.00751
2,ACAAATAT,-0.0219
3,AAACTAAC,-0.0503
4,ATTAGTCC,0.122
5,AAGACACC,0.145
6,GATGCGCA,-0.0162
7,GGCGGTAC,0.0495
8,ATGTGTGG,0.08
9,TCAGCGCA,-0.0652
10,ACATATTA,0.0937
11,CTGGTAAG,-0.195
12,AGGTTTGA,-0.122
13,AAGAGGAA,-0.128
14,ATGCAATA,0.0134
15,GCAACAAC,-0.0563
16,CGAAATAA,-0.0349
17,TCACTTCA,-0.186
18,AAAGCTTA,-0.268
19,ACAACCAA,0.166
20,GAGCATAC,-0.0369
21,CGAATTCC,-0.061
22,AGTCCCAC,0.11
23,GATTCCCA,0.198
24,AAGCGTTC,-0.174
25,AGCATCCT,-0.182

row,Sequence,PBM E-score
1,AGACATCT,0.0558
2,GGTGTAGA,-0.0211
3,AGCACCGG,0.0651
4,AATAAAAT,0.0642
5,ATCTCCAC,-0.0319
6,GCCTGGCA,-0.229
7,GACCGTGC,-0.212
8,GTGAGCGA,0.103
9,AGGCTGAA,-0.0746
10,CCGTCTCC,0.12
11,CAGGAGCG,-0.0637
12,AAGGGTGA,0.0864
13,ACTCGTAT,0.2
14,AGAGACCC,-0.101
15,CACACTAA,0.2
16,ATTTAGCG,-0.208
17,ACCACAAC,0.258
18,ACTGCATA,0.232
19,CCGCCCAG,0.0078
20,GACTGCTA,-0.0725
21,CTGGGCTC,-0.135
22,ACTTAACT,-0.126
23,CTCGGGCC,0.17
24,CAATGGAC,0.0347
25,CCCAGACC,-0.0183

row,Sequence,PBM E-score
1,CGAGTCCA,-0.0942
2,GAGCGAAA,0.0518
3,ATGTATCA,0.267
4,GAGTAATC,0.165
5,GTAAATCA,0.209
6,AAAATGTT,-0.204
7,GCTGGACC,-0.106
8,AGAATCAG,0.283
9,AGTGCTCC,-0.194
10,AACCGATT,-0.0104
11,CGAACCAC,0.137
12,AAGTACGA,0.0855
13,GGGACGGA,-0.24
14,CAGGCATA,0.0822
15,GATAGCAC,-0.141
16,CGGAACAG,0.00759
17,GAAGCCGC,-0.131
18,TCCCACCA,-0.112
19,GACTGCTC,0.073
